# Laboratory results: article PMC4336329 (PLoS ONE, 2015)
# About 14,000 (4.5%) of roughly 310,000 compounds showed an effect of 50% or more. The effect is printed as a negative number. The list shows a part of the results.
# Target: human ether-à-go-go-related gene (hERG) potassium channel (human, UniProt Q12809)
# Experiment: primary screen, population patch clamp on CHO cells stably expressing hERG
# 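Note: peak tail current of the secondary pulse compared with the same well before compound.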
# human ether-à-go-go-related gene (hERG) potassium channel, sequence (Q12809 whole entry, looked up): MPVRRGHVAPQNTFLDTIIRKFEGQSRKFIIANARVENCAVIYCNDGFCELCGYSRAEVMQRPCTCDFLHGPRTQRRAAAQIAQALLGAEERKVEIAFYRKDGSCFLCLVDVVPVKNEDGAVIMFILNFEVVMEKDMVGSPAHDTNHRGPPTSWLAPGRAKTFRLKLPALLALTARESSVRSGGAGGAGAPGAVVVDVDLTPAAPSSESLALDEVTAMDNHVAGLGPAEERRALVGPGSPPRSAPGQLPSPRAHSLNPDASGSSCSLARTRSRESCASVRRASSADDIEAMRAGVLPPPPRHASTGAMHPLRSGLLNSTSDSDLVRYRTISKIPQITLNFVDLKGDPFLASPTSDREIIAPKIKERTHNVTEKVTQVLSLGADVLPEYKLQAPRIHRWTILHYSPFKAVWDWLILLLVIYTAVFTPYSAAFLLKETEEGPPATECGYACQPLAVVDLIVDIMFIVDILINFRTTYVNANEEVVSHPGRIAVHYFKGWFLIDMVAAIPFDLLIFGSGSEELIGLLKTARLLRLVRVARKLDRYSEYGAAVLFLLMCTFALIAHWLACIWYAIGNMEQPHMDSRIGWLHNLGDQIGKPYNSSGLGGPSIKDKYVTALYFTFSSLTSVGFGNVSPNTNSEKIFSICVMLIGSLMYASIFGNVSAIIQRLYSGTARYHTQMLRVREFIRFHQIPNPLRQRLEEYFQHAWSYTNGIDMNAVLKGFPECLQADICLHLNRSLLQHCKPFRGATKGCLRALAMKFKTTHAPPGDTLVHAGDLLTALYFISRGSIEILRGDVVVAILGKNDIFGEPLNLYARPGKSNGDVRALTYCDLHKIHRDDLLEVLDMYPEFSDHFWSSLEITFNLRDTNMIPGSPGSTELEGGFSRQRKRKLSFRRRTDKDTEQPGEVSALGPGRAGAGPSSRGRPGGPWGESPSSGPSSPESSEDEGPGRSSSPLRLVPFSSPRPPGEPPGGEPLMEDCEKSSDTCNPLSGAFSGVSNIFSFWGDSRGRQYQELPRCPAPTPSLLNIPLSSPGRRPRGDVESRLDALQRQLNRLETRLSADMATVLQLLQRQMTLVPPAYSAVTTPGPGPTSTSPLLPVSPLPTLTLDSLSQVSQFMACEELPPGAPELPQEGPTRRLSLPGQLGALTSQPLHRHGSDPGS
row,SMILES,"hERG current change (%, negative = inhibition) at 10uM"
1,NC(=S)Nc1cccc2cn[nH]c12,12.8%
2,COc1ccc(CCC(=O)NCCc2ccc(OC)c(OC)c2)cc1,19.9%
3,O=C(Cn1cc(C(F)(F)F)ccc1=O)Nc1ccc(N2CCOCC2)cc1,22%
4,COC(=O)C(CCCN1C(=O)c2ccccc2C1=O)(NC(C)=O)c1nnn(C)n1 (stereo not drawn),4.11%
5,Cc1cc(C)cc(NC(=O)C(OC(=O)c2cccs2)c2ccccc2)c1 (stereo not drawn),18.7%
6,CC1CCN(CC(=O)NC(=O)NCc2ccccc2)CC1,8.38%
7,CC12CCC(C(=O)Nc3ccncc3)(CC1O)C2(C)C (stereo not drawn),7.48%
8,CCN(CC)C(=O)C1CCCN(Cc2cccc(F)c2)C1 (stereo not drawn),7.43%
9,CCC(C)(C)n1nnnc1C(c1cc2cc3c(cc2[nH]c1=O)OCO3)N1CCN(C)CC1 (stereo not drawn),-5.67%
10,CC(C)C(C)(C#N)NC(=O)CSc1nnc(-c2ccccc2)o1 (stereo not drawn),-4.63%
11,O=C(Nc1ncc(Cc2ccccc2Cl)s1)C1CCCO1 (stereo not drawn),7.65%
12,Cc1ccc(NC(=O)Cc2ncc(C(F)(F)F)cc2Cl)cc1Cl,0.534%
13,CCOc1ccc(-c2cc(C(=O)NN)[nH]n2)cc1,-6.33%
14,Clc1ccc(-c2nc(-c3ccccn3)no2)cc1Cl,-0.434%
15,CCOc1ccc(Nc2nc(-c3sc(N)nc3C)cs2)cc1,15.7%
16,CCN(C(=O)CSc1ncn[nH]1)c1cccc2ccccc12,3.47%
17,O=C(CCc1nnc2ccc(N3CCCC3)nn12)Nc1ccc(F)c(F)c1,9.52%
18,CCOCCCn1c(=S)[nH]c2cc(C(=O)N3CCN(c4ccccc4)CC3)ccc2c1=O,3.12%
19,Cc1ccccc1CN1C(=O)Nc2ccccc2C(=O)N1C(C)(C)C,-6.86%
20,CCC1Sc2ccccc2N(CC(=O)NC2CCCC2)C1=O (stereo not drawn),-3.63%
21,Cc1ccc(NC(=O)CSc2ncc3ccccn23)cc1,-2.63%
22,O=C(Cn1cc(C(F)(F)F)ccc1=O)N/N=C/c1ccc(O)cc1,2.18%
23,COc1ccc(/C(C)=N/NC(=O)CNC(=O)/C=C\c2ccccc2)c(OC)c1,-9.28%

row,SMILES,"hERG current change (%, negative = inhibition) at 10uM"
1,COCCNC(=O)CSc1nc2cc(OC)c(OC)cc2c(=O)n1Cc1ccco1,-61.2%
2,Cc1ccc(C(=O)SC2=NCCS2)cc1,-16.6%
3,COCCNC(=O)C(OC(=O)c1ccco1)c1ccccc1OC (stereo not drawn),4.24%
4,c1ccc(CSc2nnc(-c3ccccc3)c(-c3ccccc3)n2)cc1,0.0842%
5,Cn1cccc1/C=N/n1cnnc1,-15.7%
6,Cc1ccc(C(C)C)c(OCC(=O)N2CCOCC2)c1,-5.95%
7,COc1cc(NC(=O)CN(C)S(=O)(=O)c2ccc3c(c2)CC(C)N3C(C)=O)cc(OC)c1OC (stereo not drawn),13%
8,O=C(Cc1ccon1)c1ccc(O)cc1O,10.6%
9,O=C(Nc1nccs1)C1CC=CCC1 (stereo not drawn),15.2%
10,OCc1ccccc1SSc1ccccc1CO,14.5%
11,Cc1[nH]c2ccccc2c1C(=O)CSc1nc2ncc(Cl)cc2[nH]1,25%
12,C=CCNc1nc(N)c(C(=O)Nc2cc(C)on2)s1,5.36%
13,COC(=O)[C@]1(Cc2ccccc2)N[C@H](c2ccc(-c3ccc(F)cc3)cc2)[C@@H]2C(=O)N(C)C(=O)[C@@H]21.O=C(O)C(F)(F)F,2.64%
14,Cc1oc(-c2nc3ccccc3n2C)cc1C(=O)c1ccccc1,-48.7%
15,CC(C)n1c(-c2cccnc2)nc2cnccc21,1.55%
16,O=C1/C(=C\c2cc(Br)cc(Br)c2O)SC(=S)N1Cc1ccccc1,18.9%
17,Cc1ccc(OCC(=O)Nc2ccc(-c3nc4ncccc4o3)cc2)cc1,10.5%
18,CC(C)CC(/C(O)=C(\C#N)c1nc2ccccc2[nH]1)N1C(=O)c2ccccc2C1=O (stereo not drawn),-3.15%
19,O=C1CCC([N+](=O)[O-])C(c2ccc(Cl)cc2)N1 (stereo not drawn),-28.7%
20,Cc1cc(SCC(=O)Nc2cccc(S(=O)(=O)NC3=NCCCCC3)c2)nc2ccccc12,-5.93%
21,CCC(C)(C)NC(=O)C(c1ccncc1)N(Cc1cccs1)C(=O)Cn1nnc2ccccc21 (stereo not drawn),-43.7%
22,CCc1cc2c(cc3c(=O)n(CC(=O)NCCCN(CC)CC)nc(CC)n32)s1,-34.9%
